Laboratory results from the supplement of paper PMC11417369.
± gives the standard deviation of the averaged measurements. The list shows a part of the results.

tested on: PfAP2-LT AP2 domain (GST-tagged); experiment: gcPBM binding intensity (ln(normalized median fluorescence intensity)); higher = stronger DNA binding
In short: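 Each value is the highest Masliner-normalised natural-log median intensity across replicate spots of either orientation of a probe. The probes were primer-extended double-stranded 36-bp intergenic genomic sequences on an Agilent 4 × 180k array, alongside negative controls, exposed for 1 h to GST-tagged P. falciparum DNA-binding domains expressed in E. coli. Bound protein was picked up with Alexa488 anti-GST antibody and scanned at 488 nm.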

Row | Sequence | gcPBM binding intensity (ln)
1 | GAGTTTTTTTAATGATGTACATTTTAAAAATAAACG [XGTACX_site1036] | 8.29 ± 0.39
2 | AAAATAATATATGTATGTACATATACACATATAGAA [XGTACX_site2218] | 8.91 ± 0.52
3 | AAATGTTATAACTCTTGAAAAAACAAAATATCATCA [CACACA_negctrl_site1156] | 8.53 ± 0.35
4 | AGAAACCTTGTTAGTTAGCATATATATATATATATA [CACACA_negctrl_site372] | 9.78 ± 0.028
5 | AAATATAAACGGCACACACACAAAAAAAGAAAAAAA [CACACA_site649] | 9.73 ± 0.42
6 | TATTTTATACATATTTTACACACTAATATATACATA [CACACA_site7998] | 8.82 ± 0.49
7 | TTTATTATACAAAATTGTACTTTATAATTTTATGTA [XGTACX_site5846] | 8.56 ± 0.33
8 | AAATATTACGGAATAAAGAGCTTTTAAATAATTTTA [CACACA_negctrl_site1700] | 8.38 ± 0.52
9 | ATACAAAATTTTTAAGAACACACAAAAATGTACTAT [CACACA_site8817] | 8.85 ± 0.46
10 | TGAGGTAACTAAATATGTACGTAACGAAGATACATA [XGTACX_site8231] | 8.96 ± 0.5
11 | AAATATTTATAGGTTTGTACTTATAAATAAAAAAAA [XGTACX_site7360] | 8.48 ± 0.42
12 | TTTATAAAAATGAACACACACATATATATATATATA [CACACA_site3493] | 9.61 ± 0.29
13 | AATATGAAAAGATGAACAACAAAATGGAGAACAATA [GTGCAC_negctrl_site612] | 9 ± 0.49
14 | TTCTTGTATTTTCATAGTACATATAATGTCGTATTA [XGTACX_site600] | 8.88 ± 0.42
15 | AATCACAAATAAAATAATATGACACAATATAAAATA [CACACA_negctrl_site537] | 8.8 ± 0.52
16 | TACTTACACTGTTTTTGTACTTATTTCCCTTTTATT [XGTACX_site2158] | 9.14 ± 0.54
17 | TAATTTCTTATGTATTGTACAAATAATGTATGATAT [XGTACX_site270] | 8.69 ± 0.41
18 | GCGTTATTAAATAATTCACACACATATATATATATA [CACACA_site8711] | 9.68 ± 0.042
19 | GAACGCCATTCACATAAAGGGATACATAAATAAATA [XGTACX_negctrl_site330] | 8.64 ± 0.69
20 | AAGAAAAACTTTACGTGTACCAAACGTCATGCCAAC [XGTACX_site2575] | 8.81 ± 0.49
21 | TACAAGCCCAATTCAAGTACATATATATATATATAT [XGTACX_site5569] | 9.85 ± 0.14
22 | AGTTTGTCAATCAACACACACCTATTTATTATATAT [CACACA_site6030] | 9.12 ± 0.33

Row | Sequence | gcPBM binding intensity (ln)
23 | TATTTATGTATATGCTGTACGCATTTGTGAAACATA [XGTACX_site4688] | 8.77 ± 0.47
24 | AACCAATTAGAAGGATCCAGAACTTATTTGTTTTTA [CACACA_negctrl_site1744] | 8.61 ± 0.48
25 | TAAACTTTCCAGTGTTGTACATAATAATTATTATAT [XGTACX_site8896] | 8.71 ± 0.4
26 | AAAGATATGAAATATACACACTTCTTTGGTATTATT [CACACA_site6352] | 8.86 ± 0.45
27 | ATTCATTCATATGTTACACACACACGCCCACATAAA [CACACA_site7513] | 9.72 ± 0.3
28 | TTATATATATATATATATATTTACATAATAATATGT [GTGCAC_negctrl_site388] | 9.05 ± 0.19
29 | TAAAAAAAGGTTATTGGTACACACATATGTATATAT [XGTACX_site1029] | 9.09 ± 0.38
30 | TAATATTCAATTATACGTACACATATATATATATAT [XGTACX_site4245] | 9.405 ± 0.035
31 | TATGAAAGAAATAGTACACACATAAACATTTGTAAA [CACACA_site2783] | 9.14 ± 0.43
32 | GTTGCGTATATATACACACATACATATATATATATA [CACACA_site1607] | 9.695 ± 0.021
33 | TTATATAATAAAAATTGTACATATTATATATATATT [XGTACX_site3427] | 8.59 ± 0.42
34 | AAAAAAAAAAAAGAAACACACATATATATATATATA [CACACA_site140] | 9.9 ± 0.071
35 | GTTTGATTAAACTTGACACACATATATATAAATATA [CACACA_site1784] | 8.71 ± 0.44
36 | AGAAAATATACAAAACGTACTTATATATTATATCTA [XGTACX_site3104] | 8.66 ± 0.45
37 | GTTAGAGGGAAAAAGAGTACATATATGTGGATAATT [XGTACX_site2064] | 9.06 ± 0.43
38 | TCATATATCATAACAGTGCAAAAAAAAAAAAATTAT | 8.79 ± 0.49
39 | ACATATATATATAAATATATATATATATAAATATAT [CACACA_negctrl_site895] | 9.03 ± 0.28
40 | GTTGAACATAGATGCACACACATAAAATAAAAAAAA [CACACA_site5353] | 9.37 ± 0.42
41 | TGTTTAAATTTTTTGTTTTTTTTTTTATAAAGCAAA [TGCATGCA_negctrl_site313] | 8.01 ± 0.58
42 | TATATTTTTTTAAAAAGTACTTTGTATATATATATA [XGTACX_site1300] | 8.61 ± 0.42
43 | TGAAGGTCAGTTCACAGTACCCAGTAACTCTACGGA [XGTACX_site2554] | 8.62 ± 0.42
44 | TTGTTGTTATTTAAAACACACATCAATCATCTTAAC [CACACA_site1142] | 8.75 ± 0.35

Row | Sequence | gcPBM binding intensity (ln)
45 | ATTTTTTTTTCTTTCGCACACGTGAAAGAATTTCTA [CACACA_site2052] | 8.96 ± 0.49
46 | TTAAATTAAAACAAATGTACAAAGTGCATATTTTTT [XGTACX_site8143] | 8.44 ± 0.49
47 | ATATTATATTATATAACACACATTTTTCATAACACT [CACACA_site407] | 8.95 ± 0.34
48 | ATAATTTAATACTAGTGTACAGAAAAAAAAAAAAAA [XGTACX_site6756] | 8.62 ± 0.52
49 | ATAAAAAAATAAATTAGTACATATATATATATATAT [XGTACX_site6971] | 9.51 ± 0.32
50 | TTACGCATACTAATTACACACAAATAGATGAATATA [CACACA_site1338] | 8.91 ± 0.38
51 | TATTGTTATGTCGTTATTAACTTTCTTTAATTAATT [CACACA_negctrl_site174] | 8.68 ± 0.43
52 | TGAAAGTTCAATAATTGTACATGTGGAAATTCATAC [XGTACX_site1378] | 8.77 ± 0.42
53 | AAATATTCATAGTATACACACATTTATATATAATCA [CACACA_site771] | 8.84 ± 0.34
54 | AAAATTATAAATCTTGCACACAAAAAAAATAATAAA [CACACA_site8771] | 8.88 ± 0.51
55 | TTTTCATTTATGTATATATTTATTTTGATTTAATGT [GTGCAC_negctrl_site607] | 8.7 ± 0.58
56 | AATTATTTTATGTGAGGTACACCACACATGAAGGGG [XGTACX_site8450] | 9.43 ± 0.23
57 | TAAATATATTCAATCACACACATTCGTTTTTTTTTT [CACACA_site234] | 8.92 ± 0.57
58 | TATATATATTTAAGGTGTACATAAATAACAAAATAT [XGTACX_site2641] | 8.82 ± 0.47
59 | AAGTGTATACAGAAGAGTACAAACAATTTTTTTCTT [XGTACX_site7387] | 8.82 ± 0.48
60 | ATATTTCGTCTAAAAAGTACACAACAATAAAAAGTA [XGTACX_site6668] | 8.76 ± 0.44
61 | TTTTTTAAATAATATTGTACAAAAAATGTATAAATA [XGTACX_site3010] | 8.44 ± 0.42
62 | TTAGGTTTATACACTACACACATTATTCATAAAAAA [CACACA_site871] | 8.78 ± 0.35
63 | TTTTGTTATGGTTTGATGCACTTATATATAAATATT [GTGCAC_site9705] | 8.87 ± 0.37
64 | CACAGTGATATAAAAACACACATGAATTATAATTTC [CACACA_site1667] | 8.96 ± 0.36
65 | ATGTAGATAAAACGTGTGCACATGTTTTTTGTTATT | 10.3 ± 0.2
66 | ATATATATATATATATGTACTTATTACCAATGTTAG [XGTACX_site1896] | 9.66 ± 0.25

Row | Sequence | gcPBM binding intensity (ln)
67 | AAGCCCATTATTAAATGTACAAAATTTTATAAACTA [XGTACX_site7800] | 8.52 ± 0.41
68 | CAGTGCCAAATTAGCACACACATATATACATGAATT [CACACA_site2814] | 9.3 ± 0.38
69 | GTATATATGTATATATGTACATATATATAATATATT [XGTACX_site56] | 8.79 ± 0.38
70 | TAAAACATATATACAAGTACACAAAGGATATATATA [XGTACX_site3710] | 8.96 ± 0.42
71 | TATAGGTATTTATATACACACATATTCTTTTTACAC [CACACA_site6686] | 9.07 ± 0.38
72 | TACAATATTTTGAGACGTACATATATACATTTACAT [XGTACX_site5880] | 8.95 ± 0.47
73 | CTTACCAAAAGACACACACACACAAGATATATAAAT [CACACA_site6964] | 9.87 ± 0.28
74 | AAATTAAAATAAAAATGTACATATAAAGACACAACT [XGTACX_site3132] | 9.24 ± 0.47
75 | TGAACTTACTTGGACATACACACATATATATATATA [CACACA_site2977] | 9.54 ± 0.2
76 | TGTAAGTCGTTATAAGCACACACATAAATAAAAATA [CACACA_site8448] | 9.21 ± 0.42
77 | TATATATATATACCAACACACATACAGATATATATA [CACACA_site5060] | 9.24 ± 0.19
78 | TTTATATACAAAAATGCACACGAAAAGTAATATATA [CACACA_site9387] | 9.02 ± 0.34
79 | ATTTAAATACAAAATTGTACTTTTCTATATTTAACA [XGTACX_site6146] | 8.47 ± 0.39
80 | ACCCATTTAACAAAATGTACATTATTATAATTACTT [XGTACX_site7105] | 8.77 ± 0.34
81 | AAATTTTAAATAGTATGTACGTATGAAATATATATG [XGTACX_site7511] | 8.73 ± 0.3
82 | AAAATTTTACAGAAGGTGCGTATATTTTCCTGCTTA [GTGCAC_site9643] | 8.92 ± 0.41
83 | TTTGGAAAAAAATTATTTAAACGATATGAATTGATG [XGTACX_negctrl_site506] | 8.21 ± 0.4
84 | AATCATCTCATAAAAATTAATTAGTGTATGTCTTTT [TGCATGCA_negctrl_site416] | 8.65 ± 0.4
85 | CTACTTATAAATAGAACACACATAAGTGTATTTGTA [CACACA_site3759] | 8.75 ± 0.41
86 | ACAATATAGATTAAAAGTACAAATAGTAAATTATAT [XGTACX_site3165] | 8.96 ± 0.52
87 | AAAACAATATACTGTAGTACTGATGATATATATATA [XGTACX_site7798] | 9.01 ± 0.38
88 | TCTTAAATATATAAATTGAAAAATATAAAAGTAATA [CACACA_negctrl_site1558] | 8.3 ± 0.42
